This note sets out measurements from the supplement of paper PMC3334620.

The full ranking holds about 33,000 sequences; the median of “E-score (-0.5 to 0.5)” is about -0.054, and the highest 2% start at about 0.35. This is one part of the list.

The test deals with T1, Stb5 (UniProt P38699).
T1 sequence: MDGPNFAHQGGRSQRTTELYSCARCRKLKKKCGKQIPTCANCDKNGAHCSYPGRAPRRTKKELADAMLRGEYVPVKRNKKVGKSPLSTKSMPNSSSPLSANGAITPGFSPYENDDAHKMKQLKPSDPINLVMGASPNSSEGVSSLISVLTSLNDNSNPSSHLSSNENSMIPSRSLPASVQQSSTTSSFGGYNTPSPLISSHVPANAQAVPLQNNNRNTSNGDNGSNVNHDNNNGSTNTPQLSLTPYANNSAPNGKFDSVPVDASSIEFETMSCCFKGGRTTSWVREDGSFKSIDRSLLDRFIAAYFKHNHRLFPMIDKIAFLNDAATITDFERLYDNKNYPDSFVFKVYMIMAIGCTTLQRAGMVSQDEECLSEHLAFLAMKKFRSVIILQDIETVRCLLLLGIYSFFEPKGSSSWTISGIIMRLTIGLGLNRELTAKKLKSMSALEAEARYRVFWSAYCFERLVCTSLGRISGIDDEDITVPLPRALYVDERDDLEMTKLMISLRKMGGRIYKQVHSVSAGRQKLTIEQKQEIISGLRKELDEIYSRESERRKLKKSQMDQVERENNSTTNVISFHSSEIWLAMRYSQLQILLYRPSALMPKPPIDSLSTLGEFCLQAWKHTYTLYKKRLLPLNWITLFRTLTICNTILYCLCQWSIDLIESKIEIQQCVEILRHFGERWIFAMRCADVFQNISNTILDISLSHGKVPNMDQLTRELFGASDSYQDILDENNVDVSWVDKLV
Briefly: PBM E-score (8-mer binding enrichment) (E-score (-0.5 to 0.5)); higher = stronger / more preferred TF binding; most listed sequences are background and not binding sites. Conditions: protein concentration: 200 nM; construct: GST-full length. A digest of the protocol:
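Detection of bound protein used fluorescent anti-GST, with scans normalised by masliner. The proteins were GST-tagged yeast transcription factors applied at about 100-200 nM to universal all-10-mer Agilent arrays made double-stranded by primer extension. Each ungapped eight-base word, pooled with its reverse complement, was scored with an E-score from the Universal PBM Analysis Suite.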
GCGCTAGC: the “PBM E-score” value was -0.0781.
Consider AACCCTCA, for which the “PBM E-score” value is -0.205.
Regarding CGGCTTCC, the “PBM E-score” value came to 0.0242.
As for AGCGGCCG, the “PBM E-score” value is 0.252.
For ATCAATCA, the “PBM E-score” value was -0.139.
For CGGCTGAA, the “PBM E-score” value is -0.0353.
With CACATTGG, the “PBM E-score” value was -0.218.
GCAAGACC: the “PBM E-score” value was 0.146.
Take CCTTCGGC: the “PBM E-score” value was 0.134.
As for TAGGTTGA, the “PBM E-score” value was -0.128.
For ATCTGGAG, the “PBM E-score” value was -0.156.
Regarding CCGTGTGC, the “PBM E-score” value worked out at 0.206.
For ACGCTCCT, the “PBM E-score” value is -0.172.
CTGTCTCC: the “PBM E-score” value was -0.0125.
TACAGGTA: the “PBM E-score” value was 0.0151.
As to AAATCACT, the “PBM E-score” value is -0.182.
Regarding AGCGCATC, the “PBM E-score” value is -0.0682.
On to TGCTGAAA, for which the “PBM E-score” value was -0.0914.
In the case of ATGCCATG it was -0.0824.
In the case of CATCGCGG it was 0.219.
In the case of AGGAATAT it was -0.0199; in that of ATTAGGCA, -0.0904.
Regarding GGCGCCCC, the “PBM E-score” value was 0.213.
CGAGACGA: the “PBM E-score” value was -0.217.
For the sequence GCTTGCAC, the “PBM E-score” value turned out to be 0.0293.
As to CCTATCAC, the “PBM E-score” value amounted to 0.11.
In the case of AAACCGGC it was 0.268; in that of GACCACGA, -0.301.
Turning to ACGAAGCC, the “PBM E-score” value was -0.0925.
In the case of ATGACGTG, the “PBM E-score” value is -0.198.
In the case of CTGTACCA it was -0.202; in that of AATGCTGC, -0.169.
CACGCGTA: the “PBM E-score” value is -0.193.
Take ACACTAAG: the “PBM E-score” value was -0.184.
In the case of TCTATGCA it was -0.198.
Consider GGAAAAAC, for which the “PBM E-score” value came to 0.0964.
GTGCTAGA: the “PBM E-score” value was -0.0615.
Consider GCAGTGAC, for which the “PBM E-score” value is -0.138.
For the sequence GGCATTCA, the “PBM E-score” value came out at 0.0519.
For AACTAGAT, the “PBM E-score” value stood at 0.093.
In the case of GACGGCGC it was 0.199.
Consider AGCGCAAA, for which the “PBM E-score” value was -0.0953.
On to GAACATCC, for which the “PBM E-score” value amounted to 0.187.
On to CCCATACC, for which the “PBM E-score” value is -0.00943.
In the case of CGTCCTAC it was 0.0673; in that of TCCTTACA, -0.0372; in that of AGACCAGG, -0.149.
Take ATAGTAAT: the “PBM E-score” value is -0.0555.
Take AGTTACAA: the “PBM E-score” value is -0.00894.
On to ATCTGGAA, for which the “PBM E-score” value is -0.0998.
On to CAAGGGGG, for which the “PBM E-score” value was -0.15.
As for CCGTACAC, the “PBM E-score” value turned out to be 0.103.
For the sequence AAGTGTGA, the “PBM E-score” value was -0.211.
In the case of GCCACGCA it was -0.0969; in that of ACCGAAAG, 0.171; in that of AGACAGCA, -0.0893.
Take CATACTCG: the “PBM E-score” value is 0.059.
TACTACAA: the “PBM E-score” value is -0.0615.
On to AAGTGTTA, for which the “PBM E-score” value was -0.111.
For ACATAAAC, the “PBM E-score” value came out at 0.13.
For the sequence AGCGGACA, the “PBM E-score” value worked out at 0.393.
For AATAAACC, the “PBM E-score” value came to 0.102.
Turning to TCGCCAGA, the “PBM E-score” value is -0.126.
On to ATTAACGC, for which the “PBM E-score” value amounted to 0.144.
With CTACTCGA, the “PBM E-score” value is -0.127.
TCACCGAA: the “PBM E-score” value came to 0.217.
As to AATTAGCA, the “PBM E-score” value was determined as 0.0295.
Take ACGTGATA: the “PBM E-score” value is -0.232.
Regarding AAAAAAGA, the “PBM E-score” value is -0.0951.
Turning to GTAGGATA, the “PBM E-score” value was -0.0782.
Turning to ACGAGAAG, the “PBM E-score” value was -0.15.
Consider CTAGTACC, for which the “PBM E-score” value is 0.226.
As for TAAGCATA, the “PBM E-score” value was -0.101.
Turning to ATGAAGTC, the “PBM E-score” value is -0.103.
For AATCCACG, the “PBM E-score” value is -0.0195.
Regarding AAATGGTT, the “PBM E-score” value is -0.126.
With AATATAAC, the “PBM E-score” value is 0.159.
As to CGCCCGAC, the “PBM E-score” value stood at 0.33.
On to ATGGGCCA, for which the “PBM E-score” value is -0.262.
As to ACACGAGA, the “PBM E-score” value is -0.136.
Turning to CAGTCCAA, the “PBM E-score” value is -0.2.
In the case of GTTGACCA it was -0.139; in that of AAGTTACT, -0.0644.
Regarding CCTAGAGG, the “PBM E-score” value was -0.339.
With ACTATACC, the “PBM E-score” value was 0.0747.
In the case of CGTACGGA it was 0.159.
